{"source": "PubChem BioAssay AID463173", "about": "(ICCB-Longwood Screening Facility, Harvard Medical School, 2010)", "note": "About 4,300 (8.3%) of roughly 52,000 compounds were called active. Rule as the data show it: active = survival mostly below about 52% (no sharp cut-off); inactive = mostly above about 56%. The list shows a part of the results."}
{"test_system": "DeltatarO mutant", "assay": "S. aureus survival, RN4220 and DeltatarO strains – OD600, teichoic acid synthesis inhibitors, primary screen (AID 463173)", "settings": "S. aureus RN4220 wild type/DeltatarO growth, OD600, 18 h, active compounds read low, screened at 18.75 µg/mL (by protocol)"}
{"smiles": "Cc1ccc2c(c1)C(O)(C(=O)NC(N)=O)C(=O)N2", "note": "(centres undefined)", "survival": "inactive: 74%"}
{"smiles": "Fc1ccccc1N1CCN(c2ncnc3c2nc2n3CCCCC2)CC1", "survival": "inactive: 94%"}
{"smiles": "COc1ccc(C2C(=O)N(C3CCC(C)CC3)CC(=O)N2C2CCCCC2)cc1OC", "note": "(centres undefined)", "survival": "inactive: 76%"}
{"smiles": "CCOc1ccc(NC(=O)CC2C(=O)N(c3ccc(F)cc3)C(=O)N2CCc2sccc2C)cc1", "note": "(centres undefined)", "survival": "inactive: 71%"}
{"smiles": "O=C(CN(C(=O)c1csnn1)c1ccccc1)NCc1ccc2c(c1)OCO2", "survival": "inactive: 70%"}
{"smiles": "COc1ccc(CNc2nc3c(-c4ccc(C)cc4)nnn3c3ccccc23)cc1", "survival": "inactive: 86%"}
{"smiles": "COc1ccc(NC(=O)Cn2nc(SC)c(S(=O)(=O)c3ccc(C)cc3)c2N)cc1OC", "survival": "active: 25%"}
{"smiles": "O=c1[nH]c2cc3c(cc2cc1CN(CCN1CCOCC1)C(=S)Nc1ccccc1)OCCO3", "survival": "inactive: 69%"}
{"smiles": "CCN(CC)CCCNC(=O)CSc1nc2nc(C)c(Cc3ccccc3C)c(C)n2n1", "survival": "inactive: 75%"}
{"smiles": "CC(=O)OC(C(=O)n1nc(C)cc1C)c1ccccc1", "note": "(centres undefined)", "survival": "inactive: 91%"}
{"smiles": "CCOc1ccc(NC(=O)C2CCCN(c3nn4cc(-c5ccc(OC)cc5)nc4s3)C2)cc1", "note": "(centres undefined)", "survival": "inactive: 113%"}
{"smiles": "Cc1ccc2c(c1)nnn2C1CCN(CC(=O)N(c2ccccc2)c2ccccc2)CC1", "survival": "inactive: 98%"}
{"smiles": "Cc1nc2nc(C)c(NS(=O)(=O)c3ccc(F)cc3)c(=O)n2[nH]1", "survival": "inactive: 90%"}
{"smiles": "Cc1ccccc1OCCCn1c(CCNC(=O)C2CCCCC2)nc2ccccc21", "survival": "inactive: 61%"}
{"smiles": "O=C(Cn1cnc(S(=O)(=O)N2CCCC2)c1)Nc1cccc(F)c1", "survival": "inactive: 91%"}
{"smiles": "COCCNS(=O)(=O)c1ccc(S(=O)(=O)N2CCCCC2)cc1", "survival": "inactive: 103%"}
{"smiles": "CN(C(=O)Cn1c(=O)n(CCC(=O)NCc2ccc3c(c2)OCO3)c(=O)c2sccc21)c1ccccc1", "survival": "inactive: 90%"}
{"smiles": "Cc1ccc(NC(=O)c2sc3nc4n(c(=O)c3c2C)CCCCC4)c(Br)c1", "survival": "inactive: 49%"}
{"smiles": "CCOC(=O)c1cc2c(=O)n3ccccc3nc2n(CCCOC)c1=NC(=O)c1c(-c2ccccc2Cl)noc1C", "survival": "inactive: 49%"}
{"smiles": "Cc1occc1-c1nnc(SCC(=O)NCc2ccc3c(c2)OCO3)n1CC(C)C", "survival": "inactive: 88%"}
{"smiles": "CS(=O)(=O)Nc1ccccc1C(=O)O", "survival": "inactive: 81%"}
{"smiles": "CCCS(=O)(=O)NCCc1csc2nc(-c3ccc(C)cc3)nn12", "survival": "inactive: 74%"}
{"smiles": "O=C(NC1CCCCC1)c1ccc(CSc2nc3ccncc3n2Cc2ccccc2)cc1", "survival": "inactive: 70%"}
{"smiles": "COC(=O)c1cc2oc3ccccc3c2n1CC(=O)Nc1ccc(OC)c(OC)c1", "survival": "inactive: 79%"}
{"smiles": "CCN(c1ccc(Cl)cc1)S(=O)(=O)c1nnc(NC(=O)c2ccco2)s1", "survival": "inactive: 67%"}
{"smiles": "O=C(NCCc1ccccc1)c1ccc(Cn2c(=O)c3cccn3c3cccnc32)cc1", "survival": "inactive: 51%"}
{"smiles": "COc1ccc(OC)c(CNC(=O)c2ccc(Sc3ccc(Cl)cc3)c(NC(C)=O)c2)c1", "survival": "inactive: 83%"}
{"smiles": "CC(C)C(=O)Nc1nncs1", "survival": "inactive: 88%"}
{"smiles": "Cc1ccc2onc(CC(=O)N3CCN(c4ccc(Cl)cc4)CC3)c2c1", "survival": "active: 30%"}
{"smiles": "Cc1ccc(NC(=O)Cn2c(=O)n(CCCC(=O)NCc3ccc4c(c3)OCO4)c(=O)c3ccccc32)cc1", "survival": "inactive: 85%"}
{"smiles": "O=C1CC(c2nc3ccccc3n2CCC2CCCCC2)CN1c1ccccc1Cl", "note": "(centres undefined)", "survival": "active: 21%"}
{"smiles": "Cc1cccc(N2CCN(C(=O)CCCn3c(=O)[nH]c4ccsc4c3=O)CC2)c1C", "survival": "inactive: 80%"}
{"smiles": "CCCCCCc1c(C)c2c(cc(C)c3c(C)c(C)oc32)oc1=O", "survival": "inactive: 103%"}
{"smiles": "O=C(CN1CC(=O)Oc2ccccc21)OCC(=O)c1ccc(F)cc1", "survival": "inactive: 100%"}
{"smiles": "CCNc1nc(SCC(=O)OC)nc(N(C)C)n1", "survival": "inactive: 68%"}
{"smiles": "CC(=O)c1cccc(NC(=O)C2=CC(c3ccc(F)cc3)=NS(=O)(=O)N2C)c1", "survival": "inactive: 76%"}
{"smiles": "CCCCN(C(=O)Nc1ccc(Cl)cc1)C1CCN(C(C)=O)CC1", "survival": "inactive: 75%"}
{"smiles": "CC(=O)N1CC=C2C(C#N)=C(N)C(C#N)(C#N)C(CCc3ccccc3)C2C1", "note": "(centres undefined)", "survival": "inactive: 115%"}
{"smiles": "CCc1cccc(CC)c1N(COC)C(=O)Cn1c(CC)nc2ccccc21", "survival": "inactive: 69%"}
{"smiles": "Cc1ccc(C)c(NC(=O)CCS(=O)(=O)c2cccc3nsnc23)c1", "survival": "inactive: 120%"}
{"smiles": "Cn1c(=O)oc2cc(S(=O)(=O)N3CCCC(C(=O)N4CCN(c5ccc(Cl)cc5)CC4)C3)ccc21", "note": "(centres undefined)", "survival": "inactive: 49%"}
{"smiles": "CCc1ccc2nc(N3CCN(C(=O)c4ccccc4)CC3)sc2c1", "survival": "inactive: 92%"}
{"smiles": "Cc1ccc(C)c(N2CCN(C(=O)C3CCN(S(=O)(=O)c4ccc5[nH]c(=O)oc5c4)CC3)CC2)c1", "survival": "inactive: 74%"}
{"smiles": "CCOc1cc(C2C(C(=O)Nc3ccccc3)=C(C)Nc3ncnn32)cc(Br)c1O", "note": "(centres undefined)", "survival": "inactive: 102%"}
{"smiles": "CCC(C)NC(=O)C1CCN(S(=O)(=O)c2ccc(-n3cnnn3)cc2)CC1", "note": "(centres undefined)", "survival": "inactive: 91%"}
{"smiles": "Cc1cc2c(cc1S(=O)(=O)N(CCO)Cc1ccccc1)OCC(=O)N2", "survival": "active: 46%"}
{"smiles": "Cc1ccc2cc(C#N)c(SCC(=O)NCc3ccco3)nc2c1", "survival": "inactive: 94%"}
{"smiles": "CCNS(=O)(=O)c1cc(-c2nnc(Nc3cccc(C(F)(F)F)c3)c3ccccc23)ccc1C", "survival": "inactive: 72%"}
{"smiles": "COc1cccc(CN(C(=O)c2oc3ccc(Br)cc3c2C)C2CCS(=O)(=O)C2)c1", "note": "(centres undefined)", "survival": "active: 40%"}
{"smiles": "CCC(=O)N1CCc2cc(Br)cc(S(=O)(=O)NCc3cccc(OC)c3)c21", "survival": "inactive: 58%"}
{"smiles": "Cc1coc2cc3oc(=O)c(CCC(=O)N4CCCCC4)c(C)c3cc12", "survival": "inactive: 66%"}
{"smiles": "COC(=O)CNC(c1ccccc1)c1cc(Br)ccc1NC(=O)c1ccc(Cl)cc1", "note": "(centres undefined)", "survival": "inactive: 73%"}
{"smiles": "Cc1nc2ccn(Cc3ccccc3)c(=O)c2cc1C(=O)Nc1ccc(F)cc1Cl", "survival": "inactive: 90%"}
{"smiles": "CCN(CC)S(=O)(=O)c1ccc2c(c1)c(=O)c(C(=O)NCCc1ccc(OC)c(OC)c1)cn2C", "survival": "inactive: 83%"}
{"smiles": "Cc1ccc(-n2nc3c(N4CCC(C(=O)NCCc5ccccc5)CC4)nnc(C)c3c2C)cc1", "survival": "inactive: 80%"}
{"smiles": "CCOc1ccc(NC(=O)Nc2cccc(C)n2)cc1", "survival": "inactive: 88%"}
{"smiles": "COCCCN1CN=C(NS(=O)(=O)c2ccc(NC(C)=O)cc2)NC1", "survival": "inactive: 73%"}
{"smiles": "COc1ccc(C)cc1NC(=O)CN(C)S(=O)(=O)c1ccc2c(c1)CCCN2C(C)=O", "survival": "inactive: 83%"}
{"smiles": "COc1ccc(N2Cc3cccc(C(=O)Nc4ccc(C)cc4)c3C2=O)cc1", "survival": "inactive: 70%"}
{"smiles": "CCOC(=O)c1sc2ccccc2c1S(=O)(=O)N1CCN(c2ccccc2F)CC1", "survival": "inactive: 96%"}
{"smiles": "COc1ccc(C)cc1NC(=O)CN1C(=O)CSc2ccc(S(=O)(=O)N3CCCC3)cc21", "survival": "inactive: 89%"}
{"smiles": "CC1=C(c2cccc(Cl)c2)S(=O)(=O)NC1=NCc1ccccc1C", "survival": "inactive: 99%"}
{"smiles": "CCC(=O)N1CCc2cc(S(=O)(=O)N3CCN(c4ccccc4F)CC3)ccc21", "survival": "inactive: 82%"}
{"smiles": "COc1cc(OC)c(NC(=O)Cn2nc(C)n3cccc3c2=O)cc1Cl", "survival": "inactive: 96%"}
{"smiles": "CCN(CC)C(=O)CSc1nc(-c2ccccc2)cc(-c2ccc(OC)cc2)c1C#N", "survival": "active: 45%"}
{"smiles": "Cc1ccc(C)c(NC(=O)CCc2nc3cccnc3n2Cc2cccs2)c1", "survival": "inactive: 73%"}
{"smiles": "Cc1ccccc1-c1ccnc2c(-c3ccc(F)cc3)c(C)nn12", "survival": "active: 6%"}
{"smiles": "Cc1ccc(-c2cc(N)n(Cc3cccc(Cl)c3)n2)cc1", "survival": "active: 55%"}
{"smiles": "COc1cccc(NC(=O)Cn2c(=O)n(-c3ccccc3)c(=O)c3c4c(sc32)CCCC4)c1", "survival": "inactive: 90%"}
{"smiles": "c1ccc(C2CCC(N3CCNCC3)CC2)cc1", "note": "(centres undefined)", "survival": "inactive: 73%"}
{"smiles": "Cc1cc2nc(NC(=O)c3ccc(S(=O)(=O)N4CCOCC4)cc3)sc2cc1C", "survival": "inactive: 98%"}
{"smiles": "COc1ccccc1-c1noc(-c2ccc(NCc3ccccc3)c([N+](=O)[O-])c2)n1", "survival": "active: 35%"}
{"smiles": "COc1ccc(C2Nc3ccccc3-n3c(-c4ccccc4)c4c(=O)n(C)c(=O)n(C)c4c32)cc1", "note": "(centres undefined)", "survival": "inactive: 79%"}
{"smiles": "CCN(CC)C(=O)Cn1ncc2c([nH]c3ccc(C)cc32)c1=O", "survival": "inactive: 90%"}
{"smiles": "COc1ccc(NC(=O)c2ccc3c(c2)N(Cc2cccc(Cl)c2)C(=O)c2ccccc2S3(=O)=O)cc1Cl", "survival": "inactive: 88%"}
{"smiles": "CCOc1ccccc1CNC(=O)C1CCN(C(=O)N2CCOc3ccc(Cl)cc32)CC1", "survival": "inactive: 52%"}
{"smiles": "NC(=O)CN1C(=O)C(O)(CC(=O)/C=C\\c2ccccc2)c2ccccc21", "note": "(centres undefined)", "survival": "inactive: 96%"}
{"smiles": "Cc1ccc(-n2nc(C(=O)NCc3ccc(F)cc3Cl)c3c4ccccc4n(C)c3c2=O)cc1", "survival": "inactive: 131%"}
{"smiles": "COC(=O)c1ccc(Nc2nc(-c3ccc(C)cc3)nc3ccccc23)cc1", "survival": "active: 9%"}
{"smiles": "COc1ccc(-c2cn3nc(N4CCC(C(=O)NCc5cccc(Cl)c5)CC4)sc3n2)cc1", "survival": "inactive: 112%"}
{"smiles": "COc1cc(-c2noc(-c3ccc(N4CCCC4)c([N+](=O)[O-])c3)n2)cc(OC)c1OC", "survival": "inactive: 72%"}
{"smiles": "CC(=O)N1CCc2c(sc3c2c(=O)n(Cc2ccccc2)c(=O)n3Cc2cccc(Cl)c2)C1", "survival": "inactive: 102%"}
{"smiles": "Cc1ccccc1Cn1cnc2c(oc3ccccc32)c1=O", "survival": "inactive: 75%"}
{"smiles": "CCC(=O)N1CCc2cc(CNC(=O)Cc3ccc(OC)c(OC)c3)ccc21", "survival": "inactive: 72%"}
{"smiles": "COc1cc(C(=O)N2CCc3c([nH]c4ccccc34)C2c2ccc(F)cc2)cc(OC)c1OC", "note": "(centres undefined)", "survival": "inactive: 113%"}
{"smiles": "CC(=O)Nc1ccc(NC(=O)Cn2cc3c(n2)CCCCC3)cc1", "survival": "inactive: 117%"}
{"smiles": "CC(CC(=O)Nc1ccccc1)c1ccccc1", "note": "(centres undefined)", "survival": "inactive: 108%"}
{"smiles": "Cc1ccc2c(CC(=O)N3CCN(c4cccc(Cl)c4)CC3)coc2c1C", "survival": "inactive: 74%"}
{"smiles": "COC(=O)CN1C(=O)CSc2ccc(S(=O)(=O)Nc3ccccc3)cc21", "survival": "inactive: 91%"}
